PubChem BioAssay AID463173 (ICCB-Longwood Screening Facility, Harvard Medical School, 2010)
The campaign covered roughly 52,000 compounds. About 4,300 (8.3%) were called active. Cut-off read from the data, not from the text of the source: active = survival mostly below about 52% (no sharp cut-off); inactive = mostly above about 56%. This is one part of the list.

tested on: DeltatarO mutant; assay: S. aureus survival, RN4220 and DeltatarO strains – OD600, teichoic acid synthesis inhibitors, primary screen (AID 463173); conditions: S. aureus RN4220 wild type/DeltatarO growth, OD600, 18 h, hits give low values, screened at 18.75 µg/mL (by protocol)

Row | SMILES | survival
1 | O=C(Cn1nnc(-c2ccccc2)n1)N1CCCCC1 | inactive: 73%
2 | C=CCc1ccccc1OCCSc1nc(-c2cccs2)nc2cc(=O)[nH]n12 | inactive: 87%
3 | CCOc1ccc(NC(=O)c2c(C)nn(-c3ccc(F)cc3)c2-n2cccc2)cc1 | inactive: 91%
4 | COc1cccc(CNC(=O)CN2C(=O)CCc3cc(S(=O)(=O)N4CCOCC4)ccc32)c1 | inactive: 73%
5 | COc1ccc(OC)c2sc(N(Cc3cccnc3)C(C)=O)nc12 | inactive: 85%
6 | CN1CCN(C(=O)C2CCN(S(C)(=O)=O)CC2)CC1 | inactive: 83%
7 | O=C(NC1CCCC1)c1ccc2c(=O)n(Cc3ccccc3)c(SCc3ccc([N+](=O)[O-])cc3)nc2c1 | inactive: 69%
8 | CCc1ccc(CNC(=O)Cn2ccc3cc(S(=O)(=O)N4CCCCCC4)ccc32)cc1 | inactive: 130%
9 | CC(C)(C)C(=O)Nc1cccc(C(=O)O)c1 | inactive: 82%
10 | CCOc1ccc(-c2nnc(SCC(=O)NC3CCCCC3)nc2-c2ccc(OCC)cc2)cc1 | inactive: 107%
11 | COc1ccc2c(c1)Cc1sc(NC(=O)c3ccccc3C)nc1-2 | inactive: 102%
12 | Cc1ccc(C)c(N2CCN(c3nc4ccccc4c(=O)n3-c3ccc(Cl)cc3)CC2)c1 | inactive: 63%
13 | COc1cccc(CNC(=O)c2ccc(-c3nc(CS(=O)c4ccccc4)c(C)o3)cc2)c1 (stereo not given) | inactive: 92%
14 | COCCN(Cc1cc2c(C)cc(C)cc2nc1Cl)C(=O)c1ccco1 | inactive: 92%
15 | COc1ccc(NC(=O)Cn2cnc3ccc(S(=O)(=O)N4CCC(C)CC4)cc3c2=O)c(OC)c1 | inactive: 73%
16 | COc1cc(C)nc(N(C)S(=O)(=O)c2ccccc2)n1 | inactive: 97%
17 | CSc1nnc(COc2cccc(C)c2)n1C | inactive: 77%
18 | Cc1ccc(Sc2ccc(N3CCCC(C(=O)Nc4ccc(Br)cc4)C3)nn2)cc1 (stereo not given) | inactive: 50%
19 | Cc1nc2ccn(Cc3cccnc3)c(=O)c2cc1C(=O)N1CCN(c2ccccc2F)CC1 | inactive: 69%
20 | O=C(NCCc1ccc(Cl)cc1)c1cc(-c2ccccc2)n[nH]1 | inactive: 85%
21 | COc1ccc(SCc2cc(=O)c3ccc(C)c(C)c3[nH]2)cc1 | inactive: 77%
22 | CCCCOc1ccc(C(=O)NCC(c2ccc(Cl)cc2)N2CCOCC2)cc1 (stereo not given) | inactive: 55%
23 | CCN(CC)c1ccc(NC(=O)Cn2ncc3c(C)n(Cc4ccccc4F)c(C)c3c2=O)c(C)c1 | inactive: 79%

Row | SMILES | survival
24 | COc1ccc(/C=C/C(=O)Nc2ccc(C)cc2)cc1 | inactive: 77%
25 | CCOC(=O)c1ccc(N2C(=O)c3n[nH]c(-c4ccco4)c3C2c2ccc(OC)cc2OC)cc1 (stereo not given) | inactive: 89%
26 | CC1CC(C)N(C(=O)c2cc(-c3ccccc3)on2)C(C)C1 (stereo not given) | inactive: 108%
27 | CC1CN(C(=O)Nc2ccc(C(=O)NCc3ccccc3F)cc2)c2ccccc2S1 (stereo not given) | inactive: 88%
28 | Fc1ccccc1N1CCN(Cc2nnc(-c3ccc4c(c3)OCO4)o2)CC1 | inactive: 85%
29 | Cc1ccccc1OCC(=O)Nc1ccc2oc(-c3ccc(F)cc3)nc2c1 | inactive: 140%
30 | Cc1ccc(S(=O)(=O)N2Cc3ccccc3CC2C(=O)N(C)C)cc1 (stereo not given) | inactive: 70%
31 | Cc1ccc(C)c(N2C(=O)N(Cc3ccccc3C)c3ccccc3S2(=O)=O)c1 | inactive: 86%
32 | O=C(Nc1ccc(Oc2ccccc2)cc1)c1ccc(F)c(S(=O)(=O)N2CCN(c3cccc(Cl)c3)CC2)c1 | inactive: 101%
33 | COC(=O)c1nnn(-c2cccc(C)c2)c1N | inactive: 83%
34 | CC(C)Oc1ccc(CNC(=O)CN2C(=O)CCn3nc(-c4cn(C)c5ccccc45)cc32)cc1 | inactive: 118%
35 | COc1ccc(-n2c(SCc3nc(-c4ccc(C)cc4)no3)nnc2-c2ccccc2)cc1 | inactive: 60%
36 | N#C/C(=C/c1ccc(-c2ccc(S(N)(=O)=O)cc2)o1)C(=O)Nc1cc(Cl)ccc1Cl | inactive: 46%
37 | CCC(=O)Nc1nnc(CC(=O)N/N=C/c2ccc(O)cc2)s1 | inactive: 73%
38 | CCOC(=O)c1ccc(NC(=O)CN(Cc2ccc(C)cc2)S(=O)(=O)c2ccc(C)cc2)cc1 | inactive: 58%
39 | CCOc1ccc2[nH]c(=O)c(CNCCCO)cc2c1 | inactive: 95%
40 | O=c1c2cnn(-c3ccc(F)cc3)c2ncn1Cc1ccc(F)cc1 | inactive: 106%
41 | COc1ccc(Cl)cc1NC(=O)Cn1cc2c(n1)CCC(C)C2 (stereo not given) | inactive: 91%
42 | CSc1nnc2[nH]c(=O)cc(C)n12 | inactive: 69%
43 | Cc1cc(-c2ccc(S(=O)(=O)Nc3ccc(Br)c(C)c3)s2)on1 | inactive: 88%
44 | COc1ccc(-c2cc(C(F)(F)F)nc(S(=O)(=O)CCC(=O)NCc3cccnc3)n2)cc1 | inactive: 98%
45 | CSc1nc(NC(C)=O)nc(C)c1Br | inactive: 103%
46 | COc1ccc(CNC(=O)C2Cc3cc(S(=O)(=O)N4CCCCCC4)ccc3N2C(C)=O)cc1 (stereo not given) | inactive: 92%

Row | SMILES | survival
47 | O=S(=O)(c1ccc2nc(N3CCN(c4ccccc4)CC3)ccc2c1)N1CCCCC1 | active: 6%
48 | COc1ccc(-c2noc(-c3cccc(OC)c3OC)n2)cc1 | active: 8%
49 | Cc1cccc(NC(=O)CSc2nc3c(oc4ccccc43)c(=O)n2-c2ccc(F)cc2)c1 | inactive: 72%
50 | COc1ccc(Nc2cc(C(=O)NCc3ccccc3)c3ccccc3n2)c(OC)c1 | inactive: 98%
51 | CCOc1ccc(-c2cn3c(n2)sc2cc(C(=O)NC4CCCc5ccccc54)ccc23)cc1 (stereo not given) | inactive: 84%
52 | Cc1ccc(NC(=O)CC(C)S(=O)(=O)c2ccc3c(c2)NC(=O)CO3)cc1C (stereo not given) | inactive: 85%
53 | COc1ccc(NC(=O)c2cn3c4c(ccc(Cl)c4c2=O)OC(C)C3)cc1OC (stereo not given) | inactive: 102%
54 | CSc1ncc(C(=O)Nc2ccc(C(C)=O)cc2)c(-c2ccccc2)n1 | inactive: 92%
55 | O=C(NCC1CCCO1)c1cccc2ccccc12 (stereo not given) | inactive: 73%
56 | CN(C)c1ccc(-c2nnn(CC(=O)N(C)C3CCCCC3)n2)cc1 | inactive: 82%
57 | CCOc1ccc2nc(NC(=O)c3cc(=O)c4cc(C)cc(C)c4o3)sc2c1 | inactive: 85%
58 | CCOC(=O)C1CCN(CCC(=O)Nc2ccc(OC)cc2)CC1 | inactive: 55%
59 | COc1cc2cc(CN(Cc3ccc4c(c3)OCO4)C(=O)NCc3ccccc3)c(=O)[nH]c2cc1OC | inactive: 102%
60 | COc1cc(C(=O)N2CC(=O)Nc3ccc(C)cc3C2c2ccc(F)cc2)cc(OC)c1OC (stereo not given) | inactive: 188%
61 | Cc1nc(N2CCOCC2)c2c(C(=O)N3CCN(c4cccc(C)c4C)CC3)c(C)oc2n1 | inactive: 144%
62 | COc1ccc(CNC(=O)c2ccc(-c3nc(CSc4ccccc4)c(C)o3)cc2)c(OC)c1 | inactive: 85%
63 | O=C(NC1CCCC1)C1CCCN(S(=O)(=O)c2ccc(-n3cnnn3)cc2)C1 (stereo not given) | inactive: 72%
64 | CCc1ccc(NC(=O)c2cc3c([nH]c2=O)CC(C)(C)CC3=O)cc1 | inactive: 78%
65 | CCOc1ccc2oc(=O)cc(CN3CCN(c4ccccc4)CC3)c2c1 | inactive: 83%
66 | N#Cc1c[nH]n2c(NC3CCCCC3)c(-c3cccc(Cl)c3)nc12 | inactive: 50%
67 | COc1ccc(CCN2C(=O)N(c3ccccc3)C(=O)C2CC(=O)Nc2ccccc2)cc1 (stereo not given) | inactive: 71%
68 | Cc1ccc(-c2nc(C)c(CCNC(=O)C(=O)Nc3ccc4c(c3)OCO4)s2)cc1 | inactive: 84%
69 | CCCOc1ccc(C2c3c(oc4ccccc4c3=O)C(=O)N2c2nc(C)c(C(=O)OCC)s2)cc1 (stereo not given) | inactive: 60%

Row | SMILES | survival
70 | COc1ccc(S(=O)(=O)NCc2ccc(C(=O)NCc3ccccc3)cc2)cc1 | inactive: 85%
71 | Cc1cc(C)c(NC(=O)CCC(=O)N2Cc3ccccc3Oc3ncccc32)c(C)c1 | inactive: 78%
72 | O=C1CC(NNc2ccccc2)C(=O)N1c1cccc(Cl)c1 (stereo not given) | inactive: 49%
73 | COC(=O)c1ccccc1NC(=O)Cn1c(=O)n(CCCC(=O)NCCc2ccc(OC)c(OC)c2)c(=O)c2ccccc21 | inactive: 106%
74 | Cc1ccc(C)c(NC(=O)NCc2ccc3c(c2)CCN3C(=O)c2ccccc2)c1 | inactive: 55%
75 | CCCC(=O)Oc1ccc2ccc(=O)oc2c1 | inactive: 89%
76 | Cc1ccc(N=C2CCCN2Cc2ccccc2)c(C#N)c1 | inactive: 98%
77 | Cc1ccc2c(c1)-c1c(cnn1CC(=O)N1CCN(c3cc(Cl)ccc3C)CC1)CO2 | inactive: 49%
78 | CC(C)C(NS(=O)(=O)c1cccc2cccnc12)C(=O)Nc1ccc(OC(F)(F)F)cc1 (stereo not given) | inactive: 85%
79 | O=C(c1ccccc1)c1ccc2nc(Nc3cc(Cl)ccc3O)c3nncn3c2c1 | inactive: 118%
80 | COC(=O)C[N+]1(Cc2ccco2)CCCCC1 | inactive: 107%
81 | O=C1C=CC(=O)N1c1ccccc1F | inactive: 77%
82 | CC(=O)c1ccc(N2CCN(C(=O)c3ccc(Cn4c(=O)[nH]c5ccccc5c4=O)cc3)CC2)cc1 | inactive: 100%
83 | CCN1CCC(N(Cc2ccc(F)cc2)C(=O)Nc2cc(Cl)ccc2C(=O)OC)CC1 | inactive: 85%
84 | CC(C)c1ccc(NC(=O)C2(C)Cc3ccccc3C(=O)O2)cc1 (stereo not given) | inactive: 106%
85 | COc1ccc(-n2c(/C=C/c3c(C)[nH]c4ccccc34)nc3ccccc3c2=O)cc1 | inactive: 168%
86 | Cc1nn(C)c2c1c(-c1ccccc1)cc(=O)n2Cc1ccc(Cl)cc1 | inactive: 87%
87 | O=C(NC1CC1)C1CCCN1S(=O)(=O)c1ccccc1 (stereo not given) | inactive: 78%
88 | COc1cccc(CNc2nccn(-c3ccc(OC)c(OC)c3)c2=O)c1 | inactive: 99%
89 | COc1ccccc1C(=O)Nc1ccc(OCc2cc(=O)n3ccc(C)cc3n2)cc1 | inactive: 89%
90 | CCOc1ccc(S(=O)(=O)N2CCC(N3CCN(Cc4ccc(C)cc4)C(=O)C3=O)CC2)cc1 | inactive: 77%
